{"source": "paper PMC7819943", "about": "“Rice protein-binding microarrays: a tool to detect cis-acting elements near promoter regions in rice”", "note": "The other results are listed elsewhere or left out.", "data": [{"molecular_target": "T1, OsWOX13 (Oryza sativa, UniProt Q5QMM3 1-267)", "T1 sequence": "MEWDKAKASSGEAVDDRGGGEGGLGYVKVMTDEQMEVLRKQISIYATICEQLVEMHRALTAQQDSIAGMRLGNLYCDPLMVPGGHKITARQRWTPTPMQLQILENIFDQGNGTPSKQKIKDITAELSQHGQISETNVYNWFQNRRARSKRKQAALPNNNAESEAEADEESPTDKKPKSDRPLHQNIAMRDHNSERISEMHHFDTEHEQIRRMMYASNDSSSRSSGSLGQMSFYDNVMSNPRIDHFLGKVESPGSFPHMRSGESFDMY", "test": "protein-binding microarray (RPBM); PBS, 2% BSA, 51.3 ng/ul salmon testes DNA, 50 uM zinc acetate, 200 nM TF, 25 C, 1 h; high values mean tight binding", "details": "protein: recombinant; tags: N-terminal polyhistidine and DsRed monomer fusion (pET32a); label: CyDye5-dUTP incorporated in the synthesized complementary strand; 3' TTTTT single-stranded linker to array surface; dsDNA, one strand shown", "summary_of_the_method": "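Polyhistidine-tagged DsRed fusions of transcription factors, joined at the N-terminus, were expressed in E. coli BL21-CodonPlus and isolated on Ni–NTA. They were incubated at 200 nM for 1 h at 25 °C on a custom Agilent array, double-stranded and BSA-blocked, in PBS with 2% BSA, salmon testes DNA and 50 µM zinc acetate. The binding signal is per-feature fluorescence intensity (arbitrary units) read on an Axon 4000B scanner after washing.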", "values": [{"sequence": "GGATGATGATTACCATGAACACATTCCTCCCGAGCTATTACGGAGTCACCTAGTGCAG", "binding signal": "23000 fluorescence intensity (a.u.)"}, {"sequence": "TGACAAATTAAGGGACCTTAGATGAACTTATTCCTTTTCTCGGAGTCACCTAGTGCAG", "binding signal": "3820 fluorescence intensity (a.u.)"}, {"sequence": "AATAATTAAAGAGTGTGGTGCATATCAATCCCCTTTAACCCGGAGTCACCTAGTGCAG", "binding signal": "13200 fluorescence intensity (a.u.)"}, {"sequence": "ACAAAATAACAACATCAAATTTGTTGAAGTCACATACCCTCGGAGTCACCTAGTGCAG", "binding signal": "4460 fluorescence intensity (a.u.)"}, {"sequence": "TTTGTACTGATTACTCACTGGATTGGTTTAGTAACAACGTCGGAGTCACCTAGTGCAG", "binding signal": "26800 fluorescence intensity (a.u.)"}, {"sequence": "CACTGACAGCACGTGAGACGTGGCCTGCAAATCGTGCATCCGGAGTCACCTAGTGCAG", "binding signal": "7090 fluorescence intensity (a.u.)"}, {"sequence": "AATAGATTGTTTAGATTTATTTTCTTAGAATAAGTCCTATCGGAGTCACCTAGTGCAG", "binding signal": "18300 fluorescence intensity (a.u.)"}, {"sequence": "AGAAATAAATCATAAATGTATTAAATGTATCATCAACCTTCGGAGTCACCTAGTGCAG", "binding signal": "4800 fluorescence intensity (a.u.)"}, {"sequence": "GCGAGGCTGATCGGTAGTGATTGATGTCGTAGATGTTATGCGGAGTCACCTAGTGCAG", "binding signal": "14800 fluorescence intensity (a.u.)"}, {"sequence": "AAAATATATTCAATTATTGATTTGGCTAAACTAATTTAGTCGGAGTCACCTAGTGCAG", "binding signal": "24200 fluorescence intensity (a.u.)"}, {"sequence": "TGAGACTGATTGTTCTGCACTGGTGGGTGCCTTGACATCACGGAGTCACCTAGTGCAG", "binding signal": "23900 fluorescence intensity (a.u.)"}, {"sequence": "GACCTAGTTAGAGATTGATTCTAATTCAGTTAACATGCCACGGAGTCACCTAGTGCAG", "binding signal": "8160 fluorescence intensity (a.u.)"}, {"sequence": "CAAATACTTAATTATTCACCCGCTAATCGCTGCTCTGTTTCGGAGTCACCTAGTGCAG", "binding signal": "11900 fluorescence intensity (a.u.)"}, {"sequence": "TATGAACAATGAATTAATTAAAGCTTGTTTAGACTGGAGTCGGAGTCACCTAGTGCAG", "binding signal": "8460 fluorescence intensity (a.u.)"}, {"sequence": "TGTTTGCTTGCTTGATTGGTCCCTTGTCTTGTTATTAGTCCGGAGTCACCTAGTGCAG", "binding signal": "16000 fluorescence intensity (a.u.)"}, {"sequence": "ATTATACTGGTTTTAGATAATTTGAAGCTAGTAGCTGGCTCGGAGTCACCTAGTGCAG", "binding signal": "3410 fluorescence intensity (a.u.)"}, {"sequence": "CGAAGGTCGTGTGATTGAATTCCCTCACCTATACGCATGCCGGAGTCACCTAGTGCAG", "binding signal": "28200 fluorescence intensity (a.u.)"}, {"sequence": "TAATTGATAGATCTACTACTACCTTCTCTTCTCCCAGAAACGGAGTCACCTAGTGCAG", "binding signal": "28600 fluorescence intensity (a.u.)"}, {"sequence": "CAAAATTGGGGAAAATTGACCTACACCTCAATGGAACACACGGAGTCACCTAGTGCAG", "binding signal": "24500 fluorescence intensity (a.u.)"}, {"sequence": "CATCACCAAAATCTGATTGATTGACATAAGCATTGGAACACGGAGTCACCTAGTGCAG", "binding signal": "49600 fluorescence intensity (a.u.)"}, {"sequence": "TGGGGAAAATGTTAATTAGAAATATGAGATTTTGGCCTACCGGAGTCACCTAGTGCAG", "binding signal": "12900 fluorescence intensity (a.u.)"}, {"sequence": "CCGTCGACATGGCCAATCAATCAATCCTCCAGCAAATTCACGGAGTCACCTAGTGCAG", "binding signal": "11400 fluorescence intensity (a.u.)"}, {"sequence": "TAAACGTGGTAATTTGACAGTAGACACTGCACCGATTAAACGGAGTCACCTAGTGCAG", "binding signal": "4210 fluorescence intensity (a.u.)"}, {"sequence": "AGATAATTGCACAAGTATTGGAAATATATATACTAGCACACGGAGTCACCTAGTGCAG", "binding signal": "11600 fluorescence intensity (a.u.)"}, {"sequence": "ACCGGTAATTGACTTCACTTATGACCTATAACCTATAACTCGGAGTCACCTAGTGCAG", "binding signal": "40200 fluorescence intensity (a.u.)"}, {"sequence": "GTCTAGTCTGTGATTGGGACCCAAGCAAGCATACAGAGAGCGGAGTCACCTAGTGCAG", "binding signal": "17400 fluorescence intensity (a.u.)"}, {"sequence": "GAGCTCACTTATATGGGTTAATTGATCCATGCCATTGCAACGGAGTCACCTAGTGCAG", "binding signal": "7660 fluorescence intensity (a.u.)"}, {"sequence": "TACTCCGTAATTAAATAATTTCGTTTTGGAGCTCGACCTGCGGAGTCACCTAGTGCAG", "binding signal": "23100 fluorescence intensity (a.u.)"}, {"sequence": "CTCAAATTTTGCAAAATTATAATGGCATGGTTCCAATTTTCGGAGTCACCTAGTGCAG", "binding signal": "15400 fluorescence intensity (a.u.)"}, {"sequence": "GGAAGCTGATTTAATTGTGGTTTGTCAGGTTGACTGCATTCGGAGTCACCTAGTGCAG", "binding signal": "18300 fluorescence intensity (a.u.)"}, {"sequence": "TACTGATGAACTGAAGATATGTAGTACCAGCTAACAGGGACGGAGTCACCTAGTGCAG", "binding signal": "3320 fluorescence intensity (a.u.)"}, {"sequence": "CACTTCCTTCGTACCTGGGCTATCCTTCAGAAGCCTGGTTCGGAGTCACCTAGTGCAG", "binding signal": "6490 fluorescence intensity (a.u.)"}, {"sequence": "CATCAATCACTCCGGTAATTAATCACCAGCCTAATCTTTTCGGAGTCACCTAGTGCAG", "binding signal": "46000 fluorescence intensity (a.u.)"}, {"sequence": "GTGAGAATTGATGTATTCTCCTCCGGAAACACTTTTAATCCGGAGTCACCTAGTGCAG", "binding signal": "6960 fluorescence intensity (a.u.)"}, {"sequence": "CCTACAATCAAGTACATAATCCGTTTAATAATCTGTTTCACGGAGTCACCTAGTGCAG", "binding signal": "5420 fluorescence intensity (a.u.)"}, {"sequence": "GTTTGACAGACAGGTGGCGTAGCACCTAACCTGGATCAGACGGAGTCACCTAGTGCAG", "binding signal": "20100 fluorescence intensity (a.u.)"}, {"sequence": "CCTAGCTAATCAAACTTATCCTCGAATTTCGAAAACACATCGGAGTCACCTAGTGCAG", "binding signal": "3550 fluorescence intensity (a.u.)"}, {"sequence": "CAGTTGACTGTTTGATGTTGAGAAATCAACTTCAAACCTTCGGAGTCACCTAGTGCAG", "binding signal": "6730 fluorescence intensity (a.u.)"}, {"sequence": "CTCTAATTGCTACATTTTAGGATGAGGGTGGTGTAACTGTCGGAGTCACCTAGTGCAG", "binding signal": "35800 fluorescence intensity (a.u.)"}, {"sequence": "TAAAATTAGCTTGTACCTCGTAATTGTCGTTGTTTACACCCGGAGTCACCTAGTGCAG", "binding signal": "8240 fluorescence intensity (a.u.)"}, {"sequence": "CTAAATTATGTTAATAACAGCTTCTCTTCATTCATGTAACCGGAGTCACCTAGTGCAG", "binding signal": "27800 fluorescence intensity (a.u.)"}, {"sequence": "TTGCTGATTAAAACTAAATGTTTTCTCGAAAGCTTCAGATCGGAGTCACCTAGTGCAG", "binding signal": "18800 fluorescence intensity (a.u.)"}]}]}
